Source: patent US20250051441A1 (FBD BIOLOGICS, published 2025)
Blank lines part the entries; values can stand above or below the binder they belong to.

Molecular target: T1, human CD47 expressed on cell surface (human, UniProt Q08722)
T1 construct: whole, on cells; The same entry is used for CD47 on CHO-S transfectants, FaDu cells, human RBCs and platelets; also called CD47 tf CHO-S; CD47-expressing FaDu cells
Experiment: flow cytometry, whole cell binding to CD47-expressing FaDu cells, PE anti-human IgG, MFI (GeoMean)

- EC50 (read off the curve): ~200 pM
B1: HCB201-C (Fc fusion)
chain 1: [letters of about 120 residues left out]KPSGSGGSGGSGGSGEE[letters of about 120 residues left out]KPSASESKYGPPCPPCPAPEFLGGPSVFLFPPKPKDTLMISRTPEVTCVVVDVSQEDPEVQFNWYVDGVEVHNAKTKPREEQFNSTYRVVSVLTVLHQDWLNGKEYKCKVSNKGLPSSIEKTISKAKGQPREPQVCTLPPSQEEMTENQVSLTCLVKGFYPSDIAVEWESNGQPENNYKTTPPVLDSDGSFFLYSWLTVDKSRWQEGNVFSCSVMHEALHNHYTQKSLSLSLGK
chain 2: RQGMFAQLVAQNVLLIDGPLSWYSDPGLAGVSLTGGLSYKEDTKELVVAKAGVYYVFFQLELRRVVAGEGSGSVSLALHLQPLRSAAGAAALALTVDLPPASSEARNSAFGFQGRLLHLSAGQRLGVHLHTEARARHAWQLTQGATVLGLFRVTPEGGGGSGGGGSRQGMFAQLVAQNVLLIDGPLSWYSDPGLAGVSLTGGLSYKEDTKELVVAKAGVYYVFFQLELRRVVAGEGSGSVSLALHLQPLRSAAGAAALALTVDLPPASSEARNSAFGFQGRLLHLSAGQRLGVHLHTEARARHAWQLTQGATVLGLFRVTPEGGGGSGGGGSRQGMFAQLVAQNVLLIDGPLSWYSDPGLAGVSLTGGLSYKEDTKELVVAKAGVYYVFFQLELRRVVAGEGSGSVSLALHLQPLRSAAGAAALALTVDLPPASSEARNSAFGFQGRLLHLSAGQRLGVHLHTEARARHAWQLTQGATVLGLFRVTPEASESKYGPPCPPCPAPEFLGGPSVFLFPPKPKDTLMISRTPEVTCVVVDVSQEDPEVQFNWYVDGVEVHNAKTKPREEQFNSTYRVVSVLTVLHQDWLNGKEYKCKVSNKGLPSSIEKTISKAKGQPREPRVYTLPPCQEEMTKNQVSLTCLVKGFYPSDIAVEWESNGQPENNYKTTPPVLVSDGSFTLYSRLTVDKSRWQEGNVFSCSVMHEALHNHYTQKSLSLSLGK
notes: also called HCB201 protein

- EC50 (read off the curve): ~300 pM
B2: HCB201-B (Fc fusion)
chain: [letters of about 350 residues with a human IgG4 Fc left out]AAASGEGKSSGSGSESKSTGMFAQLVAQNVLLIDGPLSWYSDPGLAGVSLTGGLSYKEDTKELVVAKAGVYYVFFQLELRRVVAGEGSGSVSLALHLQPLRSAAGAAALALTVDLPPASSEARNSAFGFQGRLLHLSAGQRLGVHLHTEARARHAWQLTQGATVLGLFRVT
notes: also called HCB201 protein
